Where “and” joins values, the source holds several entries; their conditions need not be identical. Equal values may be shown once. About 2,600 (0.72%) of roughly 360,000 compounds were called active. The inconclusive results got no clear call from the source; some entries with a clear call stand among them for comparison. The call rests on the fitted dose curve; in most records, active means well fitted inhibition curve with a large enough effect; inconclusive means small, poorly fitted or top-dose-only effect; inactive means no such curve, though single readings can be large or run the other way. Where the call is inconclusive, the potency comes from a doubtful curve fit. A structure can be active in one record and inactive in another.
Assay: Primary qHTS for Inhibitors of ATXN expression; further: nearly all actives have a fitted effect of over 55% in size
Conditions: HEK-293 ATXN2-luciferase reporter, luminescence, 24 h; activity change, negative = inhibition: at 57 µM (top of the series)
How it was run: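 qHTS (up to 57 uM final) was run with 24 h compound exposure of reporter cells at 37 °C. Each well was multiplexed: SteadyGlo luminescence measured ATXN2-luciferase expression after a fluorogenic Gly-Phe-AFC viability readout (25 uM final).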
On the % scale 0 is the no-effect control and ±100 the full control effect; potency means the concentration at half of the fitted maximal effect; tags describe the fitted curve by direction and shape.

Potency, inactive:
Cc1c(N2C(=O)/C(=C/c3ccc(N(C)C)cc3)N(C)C2=S)c(=O)n(-c2ccccc2)n1C
Cc1ccc(S(=O)(=O)c2nnn3c2nc(N2CCN(c4ccc(F)cc4)CC2)c2cc(Cl)ccc23)cc1C
O=C(Nc1ccc(F)cc1)[C@H](CSCc1ccccc1)N1Cc2ccccc2C1=O
CCOC(=O)CSc1nc(N)c(C#N)c(-c2ccc(OCC)cc2)c1C#N
CC(=O)NC(=S)Nc1cc(C(F)(F)F)ccc1N1CCOCC1
CCOC(=O)c1c2ccccc2[n+]([O-])n1[C@@H](C)C(N)=O
CC1=C(C(=O)OCc2ccccc2)C(c2ccccc2OC(F)F)NC(=O)N1 (centres undefined)
CCOC(=O)[C@]12CCC=C1N(Cc1ccccc1)C(=O)[C@H](CC(=O)NCc1ccccc1)C2
CCN(CC)S(=O)(=O)c1ccc(-c2nnc(SCC(=O)Nc3nc(C)cs3)o2)cc1
CC(=O)N(C(C)=O)c1c(C#N)c(C)n(-c2ccccc2)c1C(=O)c1ccccc1
CC(C)=CCC[C@H](C)C[C@@H]1Cc2[nH][nH]c(=O)c2[C@H](c2ccc(Cl)cc2)O1
O=C(OCc1cc(=O)n2nc(C3CC3)sc2n1)c1ccc(F)cc1
CCC1CCc2nc3sc(C(=O)Nc4ccc(F)cc4F)c(N)c3cc2C1 (centres undefined)
COc1ccccc1N1CCN(CCC(=O)Nc2cccc(Cl)c2)CC1
O=C(O)C1CCN(C(=O)c2ccccc2Cl)CC1
CC(C)(C)c1ccc2c(c1)OC(C(=O)N/N=C\c1ccncc1)CO2 (centres undefined)
CCn1c(COc2ccc(=O)n(-c3ccccc3)n2)nnc1SCc1ccc(OC)cc1
COc1ccc(NC(=O)C2Cc3c(-c4cccc(C(N)=O)c4)ccnc3O2)cc1 (centres undefined)

Potency, active:
O=C(N/N=C/c1cc([N+](=O)[O-])ccc1O)c1cc(-c2ccccc2)nc2ccccc12 10 µM
CCCc1nc(C)c2c(=O)[nH]c(-c3cc(S(=O)(=O)N4CCN(CC)CC4)ccc3OCC)nn12 19.3 µM
CN(C)c1ccc(C=c2c3cc([N+](=O)[O-])ccc3n3c2cc(-c2ccccc2)[n+]3C)cc1 28.2 µM
CC(=O)C(C(C)=O)c1c(Cl)c(O)c(O)c2c(C(=O)c3ccccc3)coc12 25.1 µM

Potency, inconclusive:
OCc1ccc(-c2nn(Cc3ccccc3)c3ccccc23)o1 4.32 µM [inhibitor, full curve] and 1.58 µM [inhibitor, full curve]
C[C@@H]1CN([C@H](C)CO)C(=O)c2c(c3ccccc3n2C)-c2ccccc2CO[C@H]1CN(C)Cc1ccc(-c2ccccc2)cc1 39.8 µM [inhibitor, single point]
COc1ccc(-c2oc3ncnc(NCCCN(C)C)c3c2-c2ccc(OC)cc2)cc1 35.5 µM [inhibitor, partial curve, poor fit]
CCc1cccc(CC)c1-n1c(SCC(=O)N2CCc3ccccc3C2)nnc1-c1cccnc1 39.8 µM [inhibitor, partial curve, poor fit]
CCc1nc2c(OCCOc3ccc(F)cc3)cccn2c1N(C)C(=O)c1ccc(C)cc1 39.8 µM [inhibitor, single point]
CC(=O)c1ccc(-c2ccc([C@H]3[C@@H]4C=CCC[C@@]4(C)C(=O)N3Cc3ccccc3)c(F)c2)cc1 22.4 µM [inhibitor, single point]
CC(NCc1ccc(OCc2ccc(Cl)cc2)cc1)C(O)c1ccccc1 (centres undefined) 28.2 µM [inhibitor, single point]
COc1ccccc1C(=O)OCc1c(-c2ccccc2)ncc2ccccc12 31.6 µM [inhibitor, single point]
Cc1cccc(NC(=O)CSc2nc3ccc(NC(=O)c4ccco4)cc3s2)c1 22.4 µM [inhibitor, single point]
CCOC(=O)c1c(NC(=O)c2cc(-c3ccc(Cl)s3)nc3ccccc23)sc(C(N)=O)c1C 3.98 µM [inhibitor, partial curve, poor fit]
CN(C)CCCN(C(=O)CCS(=O)(=O)c1ccccc1)c1nc2cc3c(cc2s1)OCO3 39.8 µM [inhibitor, single point]
CC(C)(C)OC(=O)NCCc1nnc(S(=O)(=O)Cc2ccc(Cl)cc2Cl)o1 35.5 µM [inhibitor, single point]
CC(C)C[C@H]1CN([C@@H](Cc2ccc(O)cc2)CN2CCC[C@H]2CN2C(=O)C(=O)NC[C@@H]2Cc2ccccc2)C(=O)C(=O)N1CC1CCCCCC1 31.6 µM [inhibitor, single point]
CCCN1C=CC(=C2C(=O)c3ccccc3C2=O)C=C1 0.501 µM [inhibitor, partial curve, poor fit]
O=C(NCc1cccnc1)C1CCN(Cc2cc3ccccc3n2Cc2cccc(Cl)c2)CC1 25.1 µM [inhibitor, single point]
Cc1cc2nc(C3CCCN(C(=S)Nc4ccccc4)C3)[nH]c2cc1C (centres undefined) 28.2 µM [inhibitor, partial curve]
CCOc1ccc(CCNC(=O)CS(=O)Cc2nc(-c3ccc(C)cc3)oc2C)cc1 (centres undefined) 8.91 µM [inhibitor, partial curve, poor fit]
O=C1C=C(C#Cc2ccccc2)C[C@@H](c2ccc(F)cc2)C1 35.5 µM [inhibitor, single point]
Nc1ccccc1SC(C[N+](=O)[O-])c1ccccc1 (centres undefined) 39.8 µM [inhibitor, single point]
CC(=O)c1sc(C(C)(C)C)cc1NC(=O)/C=C/C(=O)O 17.8 µM [inhibitor, partial curve]
O=C(/C=C/c1ccccc1)NC(NC(=S)Nc1ccc(Cl)cc1)C(Cl)(Cl)Cl (centres undefined) 39.8 µM [inhibitor, single point]
Cc1ccccc1-c1nc(CS(=O)(=O)CC(=O)N2CCN(c3ccccc3)CC2)c(C)o1 28.2 µM [inhibitor, partial curve, poor fit]
CC1(Cc2ccccc2OC(F)(F)F)C(=O)Nc2ccc(OC(F)(F)F)cc21 (centres undefined) 39.8 µM [inhibitor, single point]
CNC(=O)OCc1nc(SSC(C)(C)C)n(C)c1COC(=O)NC 37.7 µM [inhibitor, single point]
S=C1SCN(Cc2ccccn2)CN1Cc1ccco1 25.1 µM [inhibitor, partial curve]
Cc1cc(C)c(OCC(=O)Nc2cccc(NC(=O)c3ccco3)c2)c(Br)c1 39.8 µM [inhibitor, single point]
O=C(c1cc(-c2ccccc2)n[nH]1)N1CCc2c([nH]c3ccccc23)C1c1ccccn1 (centres undefined) 39.8 µM [inhibitor, single point]
O=C(Nc1c(-c2ccc3c(c2)OCO3)[nH][nH]c1=O)c1ccccc1 31.6 µM [inhibitor, partial curve, poor fit]
O=C(CC1Sc2ccccc2NC1=O)NNc1cccc(Cl)c1Cl (centres undefined) 13.4 µM [inhibitor, partial curve, poor fit]
CCOc1ccc(-c2nc(CSCC(=O)N3CCN(c4cccc(OC)c4)CC3)c(C)o2)cc1 28.2 µM [inhibitor, partial curve]
COCCCNC(=O)C[C@H]1C[C@H](C(=O)N2CCOCC2)[C@@]2(CCC3CCCC3)c3[nH]c4cc(-c5ccco5)ccc4c3CCN2C1=O 22.4 µM [inhibitor, single point]
O=C(Nc1ccc(Br)cn1)c1cccc(C(=O)Nc2ccc(Br)cn2)c1 35.5 µM [inhibitor, single point]
CCC1CSC(Nc2ccc(C(=O)/C=C/c3ccc(Br)cc3)cc2)=N1 (centres undefined) 15.8 µM [inhibitor, single point]
CCCCc1c(-c2ccc(F)cc2)ncn1CCc1ccccc1OC 22.4 µM [inhibitor, single point]
c1ccc2c(-c3cnn4cc(-c5ccc(N6CCNCC6)cc5)cnc34)ccnc2c1 43.2 µM [inhibitor, single point]
NNC(=O)c1cccc(COc2ccc3c(c2)CCC3)c1 7.94 µM [inhibitor, partial curve, poor fit]
CCOc1ccc(C(=O)Nc2ccccc2C(=O)O)cc1 37.7 µM [inhibitor, single point]
COc1ccc(/C=C/C(=O)Nc2c(C)nn(C)c2C)cc1COc1ccc(Br)cc1 12.6 µM [inhibitor, partial curve, poor fit]
COc1cc(C(=O)Nc2ccc3oc(-c4ccccc4)nc3c2)cc(OC)c1OC 2.51 µM [inhibitor, partial curve, poor fit]

Activity change, negative = inhibition, inactive:
Cc1cccc(-n2cnc(C(=O)NNC(=S)Nc3ccc(Cl)cc3)c2)n1 -10.3% [at 11.3 µM]
CNC(=S)NCCC(c1ccccc1)c1ccccc1 -30.2% [at 11.3 µM]

Activity change, negative = inhibition, inconclusive:
CCOc1cc(S(=O)(=O)Nc2ccncc2)ccc1F -54.2% [inhibitor]
